This is one part of the list.
What was measured:
Assay in all cases: glycan array binding signal (z-score within array); higher = stronger binding
Conditions in all cases: glycan notation: IUPAC condensed, linker removed; mutation: R74S
[1] = target: Gal(b1-4)GlcNAc(b1-2)[Gal(b1-4)GlcNAc(b1-6)]Man(a1-6)[Gal(b1-4)GlcNAc(b1-2)Man(a1-3)]Man(b1-4)GlcNAc(b1-4)[Fuc(a1-6)]GlcNAc
How it was run: (§1)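 Glycan array data were curated from 3228 arrays in the Consortium for Functional Glycomics database and kept only where the protein sequence was available. Glycan names were converted to IUPAC-condensed notation, and columns mapping to the same glycan were averaged. The binding signal is a within-array Z-score, averaged across arrays of the same protein sequence at different concentrations or buffers and across linkers. Negative Z-scores can be read as non-binding.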

[2] = target: Gal(b1-4)GlcNAc(b1-2)[Gal(b1-4)GlcNAc(b1-6)]Man(a1-6)[GlcNAc(b1-4)][Gal(b1-4)GlcNAc(b1-2)Man(a1-3)]Man(b1-4)GlcNAc(b1-4)GlcNAc
How it was run: as §1

[3] = target: Gal(b1-4)GlcNAc(b1-2)[Gal(b1-4)GlcNAc(b1-6)]Man(a1-6)[GlcNAc(b1-4)][Gal(b1-4)GlcNAc(b1-2)[Gal(b1-4)GlcNAc(b1-4)]Man(a1-3)]Man(b1-4)GlcNAc(b1-4)[Fuc(a1-6)]GlcNAc
How it was run: as §1

[4] = target: Gal(b1-4)GlcNAc(b1-3)Gal(b1-3)GalNAc
How it was run: as §1

[5] = target: Gal(b1-4)GlcNAc(b1-3)Gal(b1-3)GlcNAc
How it was run: as §1

[6] = target: Gal(b1-4)GlcNAc(b1-3)Gal(b1-4)Glc
How it was run: as §1

[7] = target: Gal(b1-4)GlcNAc(b1-3)Gal(b1-4)GlcNAc
How it was run: as §1

[8] = target: Gal(b1-4)GlcNAc(b1-3)Gal(b1-4)GlcNAc(b1-2)Man(a1-3)[Gal(b1-4)GlcNAc(b1-3)Gal(b1-4)GlcNAc(b1-2)Man(a1-6)]Man(b1-4)GlcNAc(b1-4)GlcNAc
How it was run: as §1

[9] = target: Gal(b1-4)GlcNAc(b1-3)Gal(b1-4)GlcNAc(b1-2)Man(a1-3)[Gal(b1-4)GlcNAc(b1-3)Gal(b1-4)GlcNAc(b1-2)Man(a1-6)]Man(b1-4)GlcNAc(b1-4)[Fuc(a1-6)]GlcNAc
How it was run: as §1

[10] = target: Gal(b1-4)GlcNAc(b1-3)Gal(b1-4)GlcNAc(b1-2)[Gal(b1-4)GlcNAc(b1-3)Gal(b1-4)GlcNAc(b1-6)]Man(a1-6)[Gal(b1-4)GlcNAc(b1-3)Gal(b1-4)GlcNAc(b1-2)Man(a1-3)]Man(b1-4)GlcNAc(b1-4)GlcNAc
How it was run: as §1

[11] = target: Gal(b1-4)GlcNAc(b1-3)Gal(b1-4)GlcNAc(b1-2)[Gal(b1-4)GlcNAc(b1-3)Gal(b1-4)GlcNAc(b1-6)]Man(a1-6)[Gal(b1-4)GlcNAc(b1-3)Gal(b1-4)GlcNAc(b1-2)Man(a1-3)]Man(b1-4)GlcNAc(b1-4)[Fuc(a1-6)]GlcNAc
How it was run: as §1

[12] = target: Gal(b1-4)GlcNAc(b1-3)Gal(b1-4)GlcNAc(b1-3)Gal(b1-4)GlcNAc
How it was run: as §1

[13] = target: Gal(b1-4)GlcNAc(b1-3)Gal(b1-4)GlcNAc(b1-3)Gal(b1-4)GlcNAc(b1-2)Man(a1-3)[Gal(b1-4)GlcNAc(b1-3)Gal(b1-4)GlcNAc(b1-3)Gal(b1-4)GlcNAc(b1-2)Man(a1-6)]Man(b1-4)GlcNAc(b1-4)GlcNAc
How it was run: as §1

[14] = target: Gal(b1-4)GlcNAc(b1-3)Gal(b1-4)GlcNAc(b1-3)Gal(b1-4)GlcNAc(b1-2)Man(a1-3)[Gal(b1-4)GlcNAc(b1-3)Gal(b1-4)GlcNAc(b1-3)Gal(b1-4)GlcNAc(b1-2)Man(a1-6)]Man(b1-4)GlcNAc(b1-4)[Fuc(a1-6)]GlcNAc
How it was run: as §1

[15] = target: Gal(b1-4)GlcNAc(b1-3)Gal(b1-4)GlcNAc(b1-3)Gal(b1-4)GlcNAc(b1-2)[Gal(b1-4)GlcNAc(b1-3)Gal(b1-4)GlcNAc(b1-3)Gal(b1-4)GlcNAc(b1-6)]Man(a1-6)[Gal(b1-4)GlcNAc(b1-3)Gal(b1-4)GlcNAc(b1-3)Gal(b1-4)GlcNAc(b1-2)Man(a1-3)]Man(b1-4)GlcNAc(b1-4)[Fuc(a1-6)]GlcNAc
How it was run: as §1

[16] = target: Gal(b1-4)GlcNAc(b1-3)Gal(b1-4)GlcNAc(b1-3)Gal(b1-4)GlcNAc(b1-3)Gal(b1-4)GlcNAc(b1-2)Man(a1-3)[Gal(b1-4)GlcNAc(b1-3)Gal(b1-4)GlcNAc(b1-3)Gal(b1-4)GlcNAc(b1-3)Gal(b1-4)GlcNAc(b1-2)Man(a1-6)]Man(b1-4)GlcNAc(b1-4)GlcNAc
How it was run: as §1

[17] = target: Gal(b1-4)GlcNAc(b1-3)Gal(b1-4)GlcNAc(b1-3)Gal(b1-4)GlcNAc(b1-3)Gal(b1-4)GlcNAc(b1-2)Man(a1-3)[Gal(b1-4)GlcNAc(b1-3)Gal(b1-4)GlcNAc(b1-3)Gal(b1-4)GlcNAc(b1-3)Gal(b1-4)GlcNAc(b1-2)Man(a1-6)]Man(b1-4)GlcNAc(b1-4)[Fuc(a1-6)]GlcNAc
How it was run: as §1

[18] = target: Gal(b1-4)GlcNAc(b1-3)Gal(b1-4)GlcNAc(b1-3)Gal(b1-4)GlcNAc(b1-3)Gal(b1-4)GlcNAc(b1-2)[Gal(b1-4)GlcNAc(b1-3)Gal(b1-4)GlcNAc(b1-3)Gal(b1-4)GlcNAc(b1-3)Gal(b1-4)GlcNAc(b1-6)]Man(a1-6)[Gal(b1-4)GlcNAc(b1-3)Gal(b1-4)GlcNAc(b1-3)Gal(b1-4)GlcNAc(b1-3)Gal(b1-4)GlcNAc(b1-2)Man(a1-3)]Man(b1-4)GlcNAc(b1-4)[Fuc(a1-6)]GlcNAc
How it was run: as §1

[19] = target: Gal(b1-4)GlcNAc(b1-3)Gal(b1-4)GlcNAc(b1-3)Gal(b1-4)GlcNAc(b1-3)Gal(b1-4)GlcNAc(b1-3)Gal(b1-4)GlcNAc(b1-2)Man(a1-3)[Gal(b1-4)GlcNAc(b1-3)Gal(b1-4)GlcNAc(b1-3)Gal(b1-4)GlcNAc(b1-3)Gal(b1-4)GlcNAc(b1-3)Gal(b1-4)GlcNAc(b1-2)Man(a1-6)]Man(b1-4)GlcNAc(b1-4)GlcNAc
How it was run: as §1

[20] = target: Gal(b1-4)GlcNAc(b1-3)Gal(b1-4)GlcNAc(b1-3)Gal(b1-4)GlcNAc(b1-3)Gal(b1-4)GlcNAc(b1-3)Gal(b1-4)GlcNAc(b1-2)Man(a1-3)[Gal(b1-4)GlcNAc(b1-3)Gal(b1-4)GlcNAc(b1-3)Gal(b1-4)GlcNAc(b1-3)Gal(b1-4)GlcNAc(b1-3)Gal(b1-4)GlcNAc(b1-2)Man(a1-6)]Man(b1-4)GlcNAc(b1-4)[Fuc(a1-6)]GlcNAc
How it was run: as §1

[21] = target: Gal(b1-4)GlcNAc(b1-3)Gal(b1-4)GlcNAc(b1-3)Gal(b1-4)GlcNAc(b1-3)Gal(b1-4)GlcNAc(b1-3)Gal(b1-4)GlcNAc(b1-2)[Gal(b1-4)GlcNAc(b1-3)Gal(b1-4)GlcNAc(b1-3)Gal(b1-4)GlcNAc(b1-3)Gal(b1-4)GlcNAc(b1-3)Gal(b1-4)GlcNAc(b1-6)]Man(a1-6)[Gal(b1-4)GlcNAc(b1-3)Gal(b1-4)GlcNAc(b1-3)Gal(b1-4)GlcNAc(b1-3)Gal(b1-4)GlcNAc(b1-3)Gal(b1-4)GlcNAc(b1-2)Man(a1-3)]Man(b1-4)GlcNAc(b1-4)[Fuc(a1-6)]GlcNAc
How it was run: as §1

[22] = target: Gal(b1-4)GlcNAc(b1-3)Gal(b1-4)GlcNAc(b1-3)Gal(b1-4)GlcNAc(b1-3)Gal(b1-4)GlcNAc(b1-3)Gal(b1-4)GlcNAc(b1-3)Gal(b1-4)GlcNAc(b1-2)Man(a1-3)[Gal(b1-4)GlcNAc(b1-3)Gal(b1-4)GlcNAc(b1-3)Gal(b1-4)GlcNAc(b1-3)Gal(b1-4)GlcNAc(b1-3)Gal(b1-4)GlcNAc(b1-3)Gal(b1-4)GlcNAc(b1-2)Man(a1-6)]Man(b1-4)GlcNAc(b1-4)GlcNAc
How it was run: as §1

[23] = target: Gal(b1-4)GlcNAc(b1-3)Gal(b1-4)GlcNAc(b1-3)GalNAc
How it was run: as §1

B1: Gal 7 (Homo sapiens) (protein)
chain: MSNVPHKSSLPEGIRPGTVLRIRGLVPPNASRFHVNLLCGEEGGSDAALHFNPRLDTSEVVFNSKEGGSWGREESGPGVPFGRGQPFEVLIIASDDGFKAVVGDAQYHHFRHRLPLARVRLVEVGGDVQLDSVRIF
glycan array binding signal (z-score) [1]: 1.23 | glycan array binding signal (z-score) [2]: -0.422 | glycan array binding signal (z-score) [3]: 0.183 | glycan array binding signal (z-score) [4]: -0.471 | glycan array binding signal (z-score) [5]: 0.626 | glycan array binding signal (z-score) [6]: -0.482 | glycan array binding signal (z-score) [7]: -0.636 | glycan array binding signal (z-score) [8]: 3.67 | glycan array binding signal (z-score) [9]: 0.763 | glycan array binding signal (z-score) [10]: 1.49 | glycan array binding signal (z-score) [11]: 1 | glycan array binding signal (z-score) [12]: -0.395 | glycan array binding signal (z-score) [13]: 1.41 | glycan array binding signal (z-score) [14]: 2.72 | glycan array binding signal (z-score) [15]: 3.31 | glycan array binding signal (z-score) [16]: 5.53 | glycan array binding signal (z-score) [17]: 4.17 | glycan array binding signal (z-score) [18]: 4.03 | glycan array binding signal (z-score) [19]: 7.44 | glycan array binding signal (z-score) [20]: 4.13 | glycan array binding signal (z-score) [21]: 4.35 | glycan array binding signal (z-score) [22]: 2.18 | glycan array binding signal (z-score) [23]: -0.104

Reference: the supplement of paper PMC8728848
